{"source": "PubChem BioAssay AID686979", "about": "(National Center for Advancing Translational Sciences (NCATS), 2013)", "note": "Out of some 420,000 compounds screened, about 50,000 (12%) were called active. This list was built around the results that the source calls inconclusive (neither active nor inactive); the mix of calls is not that of the screen. Calls come from the whole dose curve; as a rule, active = well fitted inhibition curve with a large enough effect; inconclusive = small, poorly fitted or top-dose-only effect; inactive = flat fitted curve, though single readings scatter. No potency is given beside an inconclusive call; the fits are too rough. % is set by controls: 0 for no effect and ±100 for the full control effect; potency is the fitted concentration of half-maximal effect; tags give direction and shape of the fitted curve.", "data": [{"assay": "qHTS for Inhibitors of human tyrosyl-DNA phosphodiesterase 1 (TDP1): qHTS in cells in presence of CPT; note: nearly all actives have a fitted effect of over 55% in size", "details": "chicken DT40 Tdp1-/-;hTDP1 cells + 20 nM CPT, ATP luminescence, 48 h; activity change, negative = growth inhibition: at 46.2 µM (top of the series)", "summary_of_the_method": "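Cell growth measured by CellTiter-Glo luminescence after a minimum 48 h, 37 C compound exposure with 20 nM CPT in Tdp1-knockout DT40 cells stably expressing hTDP1, seeded 400/well; qHTS titration format.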", "values": [{"compound": "Cc1ccc2nc(Cl)c(CNCc3ccccc3)cc2c1", "Potency": "inconclusive [inhibitor, single point]"}, {"compound": "Cc1ccc(N/C(N)=N/c2nc(C)cc(C)n2)cc1", "Potency": "active: 14.6 µM"}, {"compound": "O=C(Nc1nc(-c2cccc([N+](=O)[O-])c2)cs1)C(c1ccccc1)c1ccccc1", "Potency": "inconclusive [inhibitor, single point]"}, {"compound": "O=C(N[C@@H]1c2ccccc2C2(CCN(C(=O)c3ccc4c(c3)OCCO4)CC2)[C@H]1O)c1cccnc1", "Potency": "inconclusive [inhibitor, full curve, poor fit]"}, {"compound": "CCc1ccc(C(C)NC(=S)NC2CCCCC2)cc1", "note": "(stereo not drawn)", "Potency": "inconclusive [inhibitor, single point]"}, {"compound": "Cc1nn(C)c2c1c(-c1ccccc1)cc(=O)n2Cc1ccccc1F", "Potency": "inconclusive [inhibitor, single point]"}, {"compound": "CC(=O)NC(Cc1c[nH]c2ccccc12)C(=O)N1CCN(S(=O)(=O)c2ccccc2)CC1", "note": "(stereo not drawn)", "activity change, negative = growth inhibition": "inactive: -5.06%"}, {"compound": "O=C(CCc1[nH]c2ccccc2c1Sc1ccccc1)N(CCO)CCO", "Potency": "inconclusive [inhibitor, single point]"}, {"compound": "Cc1nc2sc(-c3ccccc3)cc2c(=O)n1N", "Potency": "inconclusive [inhibitor, partial curve]"}, {"compound": "Cc1ccc(-c2noc(CCC(=O)Nc3ccc(F)cc3Cl)n2)cc1", "activity change, negative = growth inhibition": "inactive: -2.43%"}, {"compound": "CCOC(=O)c1ccc(NC(=O)c2sc3nc(N4CCOCC4)c4c(c3c2N)CCCC4)cc1", "Potency": "inconclusive [inhibitor, single point]"}, {"compound": "COc1ccc(/C=C/C(O)=C2/C(=O)N(C)C3(C)CC2c2ccccc2O3)cc1", "note": "(stereo not drawn)", "Potency": "active: 23.1 µM"}, {"compound": "Cc1cc(C)cc(OCC(=O)N/N=C/c2ccccn2)c1", "Potency": "inconclusive [inhibitor, single point]"}, {"compound": "CCCc1nc2c(sc3nc4c(cc32)COC(C)(C)C4)c(=O)n1Cc1ccco1", "Potency": "inconclusive [inhibitor, single point]"}, {"compound": "CSCC[C@H](NC(=O)C1CCN(S(=O)(=O)c2ccccc2)CC1)C(=O)NC1CC1", "activity change, negative = growth inhibition": "inactive: -8.27%"}, {"compound": "O=C(N/C(=C/c1cccc(Br)c1)C(=O)N1CCCCC1)c1ccco1", "Potency": "inconclusive [inhibitor, single point]"}, {"compound": "O=C(c1cccc(S(=O)(=O)N2CCN(c3ccc(F)cc3)CC2)c1)N1CCCC1", "Potency": "inconclusive [inhibitor, single point]"}, {"compound": "Cc1cc(C(=O)OCC(=O)Nc2ccc(F)c(F)c2F)c(C)o1", "Potency": "inconclusive [inhibitor, single point]"}, {"compound": "O=C(CSc1c2c(nc3cc(Cl)ccc13)CCCC2)NCCCN1CCOCC1", "Potency": "inconclusive [inhibitor, single point]"}, {"compound": "O=C(c1ccc2c(=O)n(C3CCCC3)c(=S)[nH]c2c1)N1CCN(C2CCCCC2)CC1", "Potency": "inconclusive [inhibitor, single point]"}, {"compound": "O=C(NCCN1CCC(n2c(=O)[nH]c3ccccc32)CC1)c1ccc(C(F)(F)F)cc1C(F)(F)F", "Potency": "active: 5.8 µM"}, {"compound": "COc1cccc(/C=C2/SC(=S)N(CCCC(=O)Nc3ccc(O)cc3)C2=O)c1", "Potency": "inconclusive [inhibitor, single point]"}, {"compound": "O=C(CNS(=O)(=O)c1ccccc1)NCc1ccco1", "activity change, negative = growth inhibition": "inactive: 0.13%"}, {"compound": "CCc1cc(C(=O)N2CCCC(N3CCN(c4cccc(C(F)(F)F)c4)CC3)C2)n(C)n1", "note": "(stereo not drawn)", "Potency": "active: 11.6 µM"}, {"compound": "CC(C)(C)OC(=O)N1CCCC(C(=O)Nc2cccc(C(=O)N3CCCC3)c2)C1", "note": "(stereo not drawn)", "activity change, negative = growth inhibition": "inactive: -14.3%"}, {"compound": "COc1ccccc1CNC(=O)c1cc(-c2ccc(F)cc2C)n[nH]1", "Potency": "inconclusive [inhibitor, single point]"}, {"compound": "COc1ccc(NC(=O)c2cc(-c3ccccc3)nc3c2c(C)nn3-c2ccccc2)c(OC)c1", "Potency": "inconclusive [inhibitor, single point]"}, {"compound": "NC(=O)CSc1ncc2c(n1)-c1ccccc1N(Cc1ccccc1)S2(=O)=O", "activity change, negative = growth inhibition": "inactive: -24.6%"}, {"compound": "COc1ccc(NC(=O)c2cccc(N3CCCS3(=O)=O)c2)cc1", "Potency": "inconclusive [inhibitor, single point]"}, {"compound": "COc1ccc(C[C@@H]2CN3C(=NC[C@@H]3C)N2CCNC(=O)c2ccc(C)c(Br)c2)cc1", "Potency": "active: 23.1 µM"}, {"compound": "CC1CCc2[nH]c3ccc(C(=O)N(C)CC(=O)Nc4ccc(F)cc4)cc3c2C1", "note": "(stereo not drawn)", "Potency": "inconclusive [inhibitor, single point]"}, {"compound": "Cc1cccc(OCCOC(=O)c2ccc(F)c(S(=O)(=O)N3CCOCC3)c2)c1", "Potency": "inconclusive [inhibitor, single point]"}, {"compound": "CCNc1nc(N)c(C(=C(C#N)C#N)c2ccccc2)s1", "Potency": "inconclusive [inhibitor, single point]"}, {"compound": "O=C(Cn1cnc2c(nnn2Cc2ccc(F)cc2)c1=O)NCc1ccc(F)cc1", "Potency": "inconclusive [inhibitor, single point]"}, {"compound": "CCOc1cc(-c2nc(-c3ccccc3)c(-c3cc([N+](=O)[O-])ccc3C)[nH]2)ccc1O", "Potency": "inconclusive [inhibitor, single point]"}, {"compound": "CCN(CC)CCN(C)C(=O)c1ccc(-c2ccccc2)nc1N(C)C", "activity change, negative = growth inhibition": "inactive: -2.24% [at 9.04 µM]"}, {"compound": "CN1CCc2c(sc(/N=C/c3c[nH]c4ccccc34)c2C#N)C1", "Potency": "inconclusive [inhibitor, single point]"}, {"compound": "CC(C)c1onc(C(=O)N2CCN(c3ccc(F)cc3)CC2)c1[N+](=O)[O-]", "activity change, negative = growth inhibition": "inactive: 1.93%"}, {"compound": "Cc1cccc(CN2CCc3c(OCC(=O)N4CCCc5ccccc54)cccc3C2=O)c1", "Potency": "active: 4.61 µM"}, {"compound": "COc1ccc(-c2csc(C(O)c3ccc(F)c(F)c3)n2)cc1", "note": "(stereo not drawn)", "Potency": "active: 18.4 µM"}, {"compound": "O=S(=O)(c1cccc(C(F)(F)F)c1)N1CCC(c2nc3ccccc3[nH]2)CC1", "Potency": "inconclusive [inhibitor, single point]"}, {"compound": "Cc1ccc(S(=O)(=O)Nc2cc(C)c(O)c(Sc3n[nH]c(C)n3)c2)cc1", "Potency": "active: 18.4 µM"}, {"compound": "COc1ccc(NS(=O)(=O)c2ccc3c(c2)CCN3C(=O)C2CC2)cc1OC", "Potency": "active: 8.2 µM"}]}]}
